# Measurements reported in the supplement of paper PMC8728848.
# The other results are listed elsewhere or left out.
# B1: SSP1 (Sclerotinia sclerotiorum), XP_001584968 (protein)
# chain: MGSSHHHHHHSSGLVPRGSHMSLLTTELACTSAPDQVLHLFFQDGQNILEARSPDGGNVWTTQDTIIAKDGDYNGSSMTCYYVDKDANFDNQPSIHLLYMNKDKQLTEKVKRMKGDNPIWEDAKVPDEVRKGPEQYSKLTSGSFNQGTGWNPNGSQWAYFSASKDGKMGIVEIRRTPKDPWHTETILEEKWGDELPGTALACVIGNGKIRVFLQHHDYSIILYENQNNTWHDRGTFIPKDKVQATTPLACTMTKDGSVHLFYVSKSNKIIHCTDGKKEEELINFFPGSKLGATSVENKITLFFRNLNPVNEVGTLENENGSWKHGTTVIPA
# Assays:
# Assay in all cases: glycan array binding signal (z-score within array); higher = stronger binding
# Details in all cases: glycan notation: IUPAC condensed, linker removed
# Neu5Ac(a2-8)Neu5Ac = target: Neu5Ac(a2-8)Neu5Ac
# How it was run: (§1)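 Arrays were curated from the Consortium for Functional Glycomics database, 3228 in total, and kept only where the protein sequence was available. Binding is expressed as a within-array Z-score. This score was averaged across arrays of the same protein sequence at different concentrations or buffers and across linkers, and negative values can be read as non-binding.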
# [1] = target: Neu5Ac(a2-8)Neu5Ac(a2-3)Gal(b1-3)GalNAc(b1-4)[Neu5Ac(a2-3)]Gal(b1-4)Glc
# How it was run: as §1
# [2] = target: Neu5Ac(a2-8)Neu5Ac(a2-3)Gal(b1-3)GalNAc(b1-4)[Neu5Ac(a2-8)Neu5Ac(a2-3)]Gal(b1-4)Glc
# How it was run: as §1
# [3] = target: Neu5Ac(a2-8)Neu5Ac(a2-3)Gal(b1-4)Glc
# How it was run: as §1
# [4] = target: Neu5Ac(a2-8)Neu5Ac(a2-3)Gal(b1-4)GlcNAc
# How it was run: as §1
# [5] = target: Neu5Ac(a2-8)Neu5Ac(a2-3)[Gal(b1-3)GalNAc(b1-4)]Gal(b1-4)Glc
# How it was run: as §1
# [6] = target: Neu5Ac(a2-8)Neu5Ac(a2-3)[GalNAc(b1-4)]Gal(b1-4)Glc
# How it was run: as §1
# [7] = target: Neu5Ac(a2-8)Neu5Ac(a2-8)Neu5Ac
# How it was run: as §1
# [8] = target: Neu5Ac(a2-8)Neu5Ac(a2-8)Neu5Ac(a2-3)Gal(b1-4)Glc
# How it was run: as §1
# [9] = target: Neu5Ac(a2-8)Neu5Ac(a2-8)Neu5Ac(a2-3)[Gal(b1-3)GalNAc(b1-4)]Gal(b1-4)Glc
# How it was run: as §1
# [10] = target: Neu5Ac(a2-8)Neu5Ac(a2-8)Neu5Ac(a2-3)[GalNAc(b1-4)]Gal(b1-4)Glc
# How it was run: as §1
# [11] = target: Neu5Ac(a2-8)Neu5Ac(a2-8)Neu5Ac(a2-8)Neu5Ac(a2-3)[GalNAc(b1-4)]Gal(b1-4)Glc
# How it was run: as §1
# [12] = target: Neu5Ac(a2-8)Neu5Gc(a2-3)Gal(b1-4)GlcNAc
# How it was run: as §1
# [13] = target: Neu5Ac(b2-6)Gal(b1-4)GlcNAc
# How it was run: as §1
# Neu5Ac(b2-6)GalNAc = target: Neu5Ac(b2-6)GalNAc
# How it was run: as §1
# [14] = target: Neu5Ac9Ac(a2-3)Gal(b1-3)GlcNAc
# How it was run: as §1
# [15] = target: Neu5Ac9Ac(a2-3)Gal(b1-4)GlcNAc
# How it was run: as §1
# [16] = target: Neu5Ac9Ac(a2-6)Gal(b1-4)GlcNAc
# How it was run: as §1
# [17] = target: Neu5Gc(a2-3)Gal(b1-3)GlcNAc
# How it was run: as §1
# [18] = target: Neu5Gc(a2-3)Gal(b1-3)[Fuc(a1-4)]GlcNAc
# How it was run: as §1
# Neu5Gc(a2-3)Gal(b1-4)Glc = target: Neu5Gc(a2-3)Gal(b1-4)Glc
# How it was run: as §1
# [19] = target: Neu5Gc(a2-3)Gal(b1-4)GlcNAc
# How it was run: as §1
# [20] = target: Neu5Gc(a2-3)Gal(b1-4)GlcNAc(b1-3)Gal(b1-4)GlcNAc(b1-2)Man(a1-3)[Neu5Gc(a2-3)Gal(b1-4)GlcNAc(b1-3)Gal(b1-4)GlcNAc(b1-2)Man(a1-6)]Man(b1-4)GlcNAc(b1-4)GlcNAc
# How it was run: as §1
# [21] = target: Neu5Gc(a2-3)Gal(b1-4)[Fuc(a1-3)]GlcNAc
# How it was run: as §1
# [22] = target: Neu5Gc(a2-6)Gal(b1-4)GlcNAc
# How it was run: as §1
# Neu5Gc(a2-6)GalNAc = target: Neu5Gc(a2-6)GalNAc
# How it was run: as §1
# [23] = target: Neu5Gc(a2-8)Neu5Ac(a2-3)Gal(b1-4)GlcNAc
# How it was run: as §1
# [24] = target: Neu5Gc(a2-8)Neu5Gc(a2-3)Gal(b1-4)GlcNAc
# How it was run: as §1
# [25] = target: Neu5Gc(a2-8)Neu5Gc(a2-3)Gal(b1-4)GlcNAc(b1-3)Gal(b1-4)GlcNAc
# How it was run: as §1
# [26] = target: Neu5Gc(a2-8)Neu5Gc(a2-6)Gal(b1-4)GlcNAc
# How it was run: as §1
# [27] = target: Neu5Gc(b2-6)Gal(b1-4)GlcNAc
# How it was run: as §1
binder,measurement,setting,value
B1,glycan array binding signal (z-score),Neu5Ac(a2-8)Neu5Ac,-0.405
same,glycan array binding signal (z-score),[1],-0.216
same,glycan array binding signal (z-score),[2],0.181
same,glycan array binding signal (z-score),[3],-0.712
same,glycan array binding signal (z-score),[4],-0.119
same,glycan array binding signal (z-score),[5],-0.217
same,glycan array binding signal (z-score),[6],0.221
same,glycan array binding signal (z-score),[7],-0.283
same,glycan array binding signal (z-score),[8],-0.656
same,glycan array binding signal (z-score),[9],0.164
same,glycan array binding signal (z-score),[10],-0.49
same,glycan array binding signal (z-score),[11],0.336
same,glycan array binding signal (z-score),[12],9.08
same,glycan array binding signal (z-score),[13],-0.707
same,glycan array binding signal (z-score),Neu5Ac(b2-6)GalNAc,-0.532
same,glycan array binding signal (z-score),[14],-0.209
same,glycan array binding signal (z-score),[15],-0.449
same,glycan array binding signal (z-score),[16],-0.228
same,glycan array binding signal (z-score),[17],0.388
same,glycan array binding signal (z-score),[18],0.987
same,glycan array binding signal (z-score),Neu5Gc(a2-3)Gal(b1-4)Glc,0.196
same,glycan array binding signal (z-score),[19],-0.22
same,glycan array binding signal (z-score),[20],0.241
same,glycan array binding signal (z-score),[21],-0.542
same,glycan array binding signal (z-score),[22],-0.229
same,glycan array binding signal (z-score),Neu5Gc(a2-6)GalNAc,-0.258
same,glycan array binding signal (z-score),[23],-0.438
same,glycan array binding signal (z-score),[24],-0.265
same,glycan array binding signal (z-score),[25],-0.207
same,glycan array binding signal (z-score),[26],-0.359
same,glycan array binding signal (z-score),[27],0.101
